# PubChem BioAssay AID1645882 (National Center for Advancing Translational Sciences (NCATS), 2021)
# Hit rate of the full screen: of about 16,000 compounds, about 120 (0.75%) were called active. Roughly 4% stayed inconclusive and do not appear here. Calls follow the shape of the dose curve; as a rule, active = well fitted inhibition curve with a large enough effect; inconclusive = small, poorly fitted or top-dose-only effect; inactive = no such curve, though single readings can be large or run the other way. Some of the results follow.
# Biological target: Rap guanine nucleotide exchange factor 3 (Homo sapiens) (UniProt O95398)
# Test: Validation qHTS for antagonist of cAMP-regulated guanine nucleotide exchange factor 3 (EPAC1); also: nearly all actives have a fitted effect of over 75% in size
# Settings: EPAC1 Rap1B-BODIPY-GDP exchange, fluorescence; series mostly up to 150 µM; activity change, negative = inhibition: at the top concentration
# Summary of the method: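 EPAC1 (100 nM) mixed with 250 nM RAP1B-BODIPY-GDP and 50 uM GDP; compounds in concentration series, 5 min at room temperature. Fluorescence (ex 480/em 540 nm) read every 5 min for 30 min; normalized to ATA control and DMSO.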
# Sequence of UniProt O95398 (O95398 whole entry, looked up): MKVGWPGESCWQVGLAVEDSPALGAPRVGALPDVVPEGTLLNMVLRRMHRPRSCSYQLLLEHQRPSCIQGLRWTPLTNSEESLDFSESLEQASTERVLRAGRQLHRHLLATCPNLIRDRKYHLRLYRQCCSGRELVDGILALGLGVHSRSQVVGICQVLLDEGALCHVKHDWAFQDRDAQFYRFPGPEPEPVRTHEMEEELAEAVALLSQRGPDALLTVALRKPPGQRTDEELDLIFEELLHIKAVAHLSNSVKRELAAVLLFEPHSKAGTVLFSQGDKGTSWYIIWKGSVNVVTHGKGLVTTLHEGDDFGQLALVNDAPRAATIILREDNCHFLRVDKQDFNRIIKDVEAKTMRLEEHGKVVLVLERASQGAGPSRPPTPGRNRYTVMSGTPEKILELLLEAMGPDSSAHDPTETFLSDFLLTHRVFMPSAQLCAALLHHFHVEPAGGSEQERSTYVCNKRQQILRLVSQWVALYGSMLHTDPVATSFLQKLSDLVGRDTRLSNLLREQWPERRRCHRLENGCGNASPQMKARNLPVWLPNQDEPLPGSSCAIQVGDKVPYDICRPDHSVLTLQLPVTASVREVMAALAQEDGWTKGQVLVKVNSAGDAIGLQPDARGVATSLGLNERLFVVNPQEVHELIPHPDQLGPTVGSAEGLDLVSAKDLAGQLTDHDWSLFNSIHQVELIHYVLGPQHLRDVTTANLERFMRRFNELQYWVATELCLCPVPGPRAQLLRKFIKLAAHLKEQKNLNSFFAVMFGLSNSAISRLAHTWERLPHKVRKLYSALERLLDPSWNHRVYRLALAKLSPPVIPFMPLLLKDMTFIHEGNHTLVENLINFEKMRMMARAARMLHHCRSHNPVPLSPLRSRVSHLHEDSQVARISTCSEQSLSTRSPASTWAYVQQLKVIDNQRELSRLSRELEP
row,SMILES,"activity change, negative = inhibition"
1,Cn1cc(-c2nc3cncnc3n(Cc3ccccc3Cl)c2=O)c2ccccc21,inactive: -11.1%
2,CC1(C)SC2C(NC(=O)C(NC(=O)N3CCNC3=O)c3ccccc3)C(=O)N2C1C(=O)O (centres undefined),inactive: -1.44%
3,CC(=O)O[C@@]12CO[C@@H]1C[C@H](O)[C@@]1(C)C(=O)[C@H](O)C3=C(C)[C@@H](OC(=O)[C@H](O)[C@@H](NC(=O)OC(C)(C)C)c4ccccc4)C[C@@](O)([C@@H](OC(=O)c4ccccc4)[C@H]21)C3(C)C,inactive
4,COc1ccc(-c2cn(CC3CCCCC3)nn2)cc1,inactive: 6.43%
5,COc1ccc(CNC(=O)C[C@H]2C(=O)N(Cc3ccccc3)C[C@@H]2Cc2ccccc2)cc1,inactive: -4.31%
6,COc1cccc(Nc2ncc3nc(-c4ccc(F)cc4)c(=O)n(C)c3n2)c1,inactive: 9.55%
7,CC(CN(C)C)CN1c2ccccc2Sc2ccc(C(F)(F)F)cc21 (centres undefined),inactive: 12%
8,CN(CC(=O)O)c1ccc(/C=C/c2ccnc3ccccc23)cc1,inactive: 17.6%
9,COc1ccccc1N1CCN(CCN(C(=O)C2CCCCC2)c2ccccn2)CC1,inactive: 5.61% [at 75.8 µM]
10,CN1C(=O)CC(c2ccccc2)C1=O (centres undefined),inactive: 0.508%
11,COc1cc2c(cc1OC)-c1cc3cc(OC)c(OC)cc3c(=O)n1CC2,inactive: 11.9%
12,CC(=O)[C@H]1CC[C@H]2C3CC=C4C[C@@H](O)CC[C@]4(C)C3CC[C@]12C (some centres undefined),inactive: 3.37%
13,COc1cc(=O)n2c(c1C(=O)NCc1nccs1)CCN(Cc1ccccc1F)CC2,inactive: -5.61%
14,O=c1c(-c2cc(F)cc(F)c2)nc2cnc(Oc3ccccc3)nc2n1C1CC1,inactive: 17.6%
15,CN(C)CCN(Cc1ccccc1)c1ccccn1,inactive: 23.3%
16,O=C(c1cccc(F)c1)N1CCC2(CCCN(Cc3nccs3)C2)CC1,inactive: 14.2%
17,COc1cc(=O)n2c(c1C(=O)N(C)Cc1nonc1C)CCN(C(=O)c1ccc(C)cc1C)CC2,inactive: 6.14%
18,CN(C)c1ccc(-c2cncnc2NCc2cccs2)cc1,inactive: 17.1%
19,O=C(O)CC(O)(CC(=O)O)C(=O)O,inactive
20,COc1ccc(/C=C/C(=O)NCC2Cc3cc(Cl)cc(-c4ncccn4)c3O2)cc1 (centres undefined),inactive: -6.18%
21,Cc1ccnc2ccc(Br)cc12,inactive: 19.9%
22,Cc1o[nH]c(=O)c1CC[C@H](N)C(=O)O,inactive: 11.1%
23,C/C=C1\C2C=C(C)CC1(N)c1ccc(=O)[nH]c1C2 (centres undefined),inactive: 1.35% [at 320 µM]
24,COc1cccc2c(=O)c3ccccc3oc12,inactive: 20.6%
25,COc1cc(OC)c2c(=O)c(O)c(-c3ccc(OC)c(OC)c3)oc2c1,inactive: 16.2%
26,Nc1nc(NC2CC2)c2ncn([C@@H]3C=C[C@@H](CO)C3)c2n1,inactive: 11.5%
27,CNCc1ccccc1,inactive: -16.8%

row,SMILES,"activity change, negative = inhibition"
1,COc1ccc(NC(=O)N2CCC3(CC2)CCN(C(=O)c2cccc(F)c2)CC3)cc1,inactive: 7.22%
2,O=C(NNCNNC(=O)c1ccncc1)c1ccncc1,inactive: 12.8%
3,C=C1C[C@@]23CC[C@H]4[C@@](C)(CCC[C@@]4(C)C(=O)O)[C@@H]2CC[C@]1(O)C3,inactive: -4.87% [at 75.8 µM]
4,CNC1C(O)C(O)C(CO)O[C@H]1OC1C(O[C@@H]2C(O)C(O)[C@@H](N=C(N)N)C(O)C2N=C(N)N)OC(C)[C@]1(O)C=O (some centres undefined),inactive: 4.86%
5,O=C(O)Cc1ccccc1Oc1ccc(Cl)cc1Cl,inactive: 14.1%
6,COc1cc(OC)cc(OC)c1,inactive: 17.6%
7,COc1cc(O)c(C(=O)c2ccccc2)cc1S(=O)(=O)O,inactive: 21.5%
8,CCCCC(CC)COC(=O)c1ccc(N(C)C)cc1 (centres undefined),inactive: -9.76%
9,COC(=O)C1CCN(Cc2ccc3c(c2)CN(C(=O)C(C)N2CCOCC2)CCO3)CC1 (centres undefined),inactive: 12.2%
10,Cn1cc(-c2nc3cnc(N4CCOCC4)nc3n(C3CC3)c2=O)c2ccccc21,inactive: 2.35%
11,Cc1cccc(CNc2cc(-c3c(C)noc3C)ncn2)c1,inactive: 0.103%
12,O=c1[nH]c(=O)n(C2CC(O)C(CO)O2)cc1F (centres undefined),inactive: -5.22%
13,Cc1ccccc1-c1ccc(CN2CCc3nnc(C(NS(C)(=O)=O)C(C)C)n3CC2)cc1 (centres undefined),inactive: -0.552%
14,OCC(O)COc1ccc(Cl)cc1 (centres undefined),inactive: 24.4%
15,C[C@H](CCC(=O)O)[C@H]1CC[C@H]2[C@H]3C(CC[C@]12C)[C@@]1(C)CC[C@@H](O)C[C@H]1C[C@H]3O (some centres undefined),inactive
16,Nc1ccc(/C=C/c2ccnc3ccccc23)c(N)c1,inactive: 32.5%
17,O=C(C[N+]1(CC(O)c2ccccc2)CCCCC1)c1ccccc1 (centres undefined),inactive: -7.98%
18,COc1cc2c(cc1O)C(Cc1ccc(O)cc1)N(C)CC2 (centres undefined),inactive: 22.5%
19,COc1ncc2nc(-c3ccc(F)cc3)c(=O)n(C[C@H]3CCCO3)c2n1,inactive: 9.82%
20,COc1cc(CNc2nc(C)c(-c3ccn(CC4CCCN(C)C4)n3)s2)ccc1F (centres undefined),inactive: 11.6%
21,COc1cccc(CC(=O)NCC2Cc3cc(Cl)cc(-c4ncccn4)c3O2)c1 (centres undefined),inactive: 6.54%
22,CC(=O)Nc1ccc(S[C@@H](CCN2CC[C@H](O)CCC2=O)c2ccccc2)cc1,inactive: 10.7%
23,COC(=O)c1ccccc1C(=O)N1CCOc2ccc(CN3CCN(c4ccccn4)CC3)cc2C1,inactive: 7.29%
24,N[C@@H](Cc1cc(I)c(Oc2cc(I)c(O)c(I)c2)c(I)c1)C(=O)O,inactive
25,CN1CCN(c2ncnc3ccc(-c4cccnc4)cc23)CC1,inactive: 10.2%
26,CC1(C)CCC(C)(C)c2cc(NC(=O)c3ccc(C(=O)O)cc3)ccc21,inactive: 10.4%
27,Cc1cc(=O)oc2cc(O)c(O)cc12,inactive: 1.8%
